B1: TNFα dAb Fc variant L79V (Fc fusion, name in Kabat numbering)
chain: DIQMTQSPSSLSASVGDRVTITCRASQAIDSYLHWYQQKPGKAPKLLIYSASNLETGVPSRFSGSGSGTDFTLTISSLVPEDFATYYCQQVVWRPFTFGQGTKVEIKRV[human IgG1 Fc with changes left out]
B2: TNFα dAb Fc variant G64H (Fc fusion, name in Kabat numbering)
chain: DIQMTQSPSSLSASVGDRVTITCRASQAIDSYLHWYQQKPGKAPKLLIYSASNLETGVPSRFSHSGSGTDFTLTISSLLPEDFATYYCQQVVWRPFTFGQGTKVEIKRV[human IgG1 Fc with changes left out]
B3: TNFα dAb Fc variant E81H (Fc fusion, name in Kabat numbering)
chain: DIQMTQSPSSLSASVGDRVTITCRASQAIDSYLHWYQQKPGKAPKLLIYSASNLETGVPSRFSGSGSGTDFTLTISSLLPHDFATYYCQQVVWRPFTFGQGTKVEIKRV[human IgG1 Fc with changes left out]
B4: TNFα dAb Fc variant G41D (Fc fusion, name in Kabat numbering)
chain: DIQMTQSPSSLSASVGDRVTITCRASQAIDSYLHWYQQKPDKAPKLLIYSASNLETGVPSRFSGSGSGTDFTLTISSLLPEDFATYYCQQVVWRPFTFGQGTKVEIKRV[human IgG1 Fc with changes left out]
B5: TNFα dAb Fc variant D82H (Fc fusion, name in Kabat numbering)
chain: DIQMTQSPSSLSASVGDRVTITCRASQAIDSYLHWYQQKPGKAPKLLIYSASNLETGVPSRFSGSGSGTDFTLTISSLLPEHFATYYCQQVVWRPFTFGQGTKVEIKRV[human IgG1 Fc with changes left out]
B6: TNFα dAb Fc variant F71P (Fc fusion, name in Kabat numbering)
chain: DIQMTQSPSSLSASVGDRVTITCRASQAIDSYLHWYQQKPGKAPKLLIYSASNLETGVPSRFSGSGSGTDPTLTISSLLPEDFATYYCQQVVWRPFTFGQGTKVEIKRV[human IgG1 Fc with changes left out]
B7: TNFα dAb Fc variant A43P (Fc fusion, name in Kabat numbering)
chain: DIQMTQSPSSLSASVGDRVTITCRASQAIDSYLHWYQQKPGKPPKLLIYSASNLETGVPSRFSGSGSGTDFTLTISSLLPEDFATYYCQQVVWRPFTFGQGTKVEIKRV[human IgG1 Fc with changes left out]
B8: TNFα dAb Fc variant A84D (Fc fusion, name in Kabat numbering)
chain: DIQMTQSPSSLSASVGDRVTITCRASQAIDSYLHWYQQKPGKAPKLLIYSASNLETGVPSRFSGSGSGTDFTLTISSLLPEDFDTYYCQQVVWRPFTFGQGTKVEIKRV[human IgG1 Fc with changes left out]
B9: TNFα dAb Fc variant F62K (Fc fusion, name in Kabat numbering)
chain: DIQMTQSPSSLSASVGDRVTITCRASQAIDSYLHWYQQKPGKAPKLLIYSASNLETGVPSRKSGSGSGTDFTLTISSLLPEDFATYYCQQVVWRPFTFGQGTKVEIKRV[human IgG1 Fc with changes left out]
B10: TNFα dAb Fc variant A84H (Fc fusion, name in Kabat numbering)
chain: DIQMTQSPSSLSASVGDRVTITCRASQAIDSYLHWYQQKPGKAPKLLIYSASNLETGVPSRFSGSGSGTDFTLTISSLLPEDFHTYYCQQVVWRPFTFGQGTKVEIKRV[human IgG1 Fc with changes left out]
B11: TNFα dAb Fc variant D70K (Fc fusion, name in Kabat numbering)
chain: DIQMTQSPSSLSASVGDRVTITCRASQAIDSYLHWYQQKPGKAPKLLIYSASNLETGVPSRFSGSGSGTKFTLTISSLLPEDFATYYCQQVVWRPFTFGQGTKVEIKRV[human IgG1 Fc with changes left out]
B12: TNFα dAb Fc variant A84L (Fc fusion, name in Kabat numbering)
chain: DIQMTQSPSSLSASVGDRVTITCRASQAIDSYLHWYQQKPGKAPKLLIYSASNLETGVPSRFSGSGSGTDFTLTISSLLPEDFLTYYCQQVVWRPFTFGQGTKVEIKRV[human IgG1 Fc with changes left out]
B13: TNFα dAb Fc variant F62D (Fc fusion, name in Kabat numbering)
chain: DIQMTQSPSSLSASVGDRVTITCRASQAIDSYLHWYQQKPGKAPKLLIYSASNLETGVPSRDSGSGSGTDFTLTISSLLPEDFATYYCQQVVWRPFTFGQGTKVEIKRV[human IgG1 Fc with changes left out]
B14: TNFα dAb Fc variant A43L (Fc fusion, name in Kabat numbering)
chain: DIQMTQSPSSLSASVGDRVTITCRASQAIDSYLHWYQQKPGKLPKLLIYSASNLETGVPSRFSGSGSGTDFTLTISSLLPEDFATYYCQQVVWRPFTFGQGTKVEIKRV[human IgG1 Fc with changes left out]
B15: TNFα dAb Fc variant D82Y (Fc fusion, name in Kabat numbering)
chain: DIQMTQSPSSLSASVGDRVTITCRASQAIDSYLHWYQQKPGKAPKLLIYSASNLETGVPSRFSGSGSGTDFTLTISSLLPEYFATYYCQQVVWRPFTFGQGTKVEIKRV[human IgG1 Fc with changes left out]
B16: TNFα dAb Fc variant F71S (Fc fusion, name in Kabat numbering)
chain: DIQMTQSPSSLSASVGDRVTITCRASQAIDSYLHWYQQKPGKAPKLLIYSASNLETGVPSRFSGSGSGTDSTLTISSLLPEDFATYYCQQVVWRPFTFGQGTKVEIKRV[human IgG1 Fc with changes left out]
B17: TNFα dAb Fc variant A43S (Fc fusion, name in Kabat numbering)
chain: DIQMTQSPSSLSASVGDRVTITCRASQAIDSYLHWYQQKPGKSPKLLIYSASNLETGVPSRFSGSGSGTDFTLTISSLLPEDFATYYCQQVVWRPFTFGQGTKVEIKRV[human IgG1 Fc with changes left out]
B18: TNFα dAb Fc variant F62A (Fc fusion, name in Kabat numbering)
chain: DIQMTQSPSSLSASVGDRVTITCRASQAIDSYLHWYQQKPGKAPKLLIYSASNLETGVPSRASGSGSGTDFTLTISSLLPEDFATYYCQQVVWRPFTFGQGTKVEIKRV[human IgG1 Fc with changes left out]
B19: TNFα dAb Fc variant D70H (Fc fusion, name in Kabat numbering)
chain: DIQMTQSPSSLSASVGDRVTITCRASQAIDSYLHWYQQKPGKAPKLLIYSASNLETGVPSRFSGSGSGTHFTLTISSLLPEDFATYYCQQVVWRPFTFGQGTKVEIKRV[human IgG1 Fc with changes left out]
B20: TNFα dAb Fc variant F62P (Fc fusion, name in Kabat numbering)
chain: DIQMTQSPSSLSASVGDRVTITCRASQAIDSYLHWYQQKPGKAPKLLIYSASNLETGVPSRPSGSGSGTDFTLTISSLLPEDFATYYCQQVVWRPFTFGQGTKVEIKRV[human IgG1 Fc with changes left out]
B21: TNFα dAb Fc variant E81D (Fc fusion, name in Kabat numbering)
chain: DIQMTQSPSSLSASVGDRVTITCRASQAIDSYLHWYQQKPGKAPKLLIYSASNLETGVPSRFSGSGSGTDFTLTISSLLPDDFATYYCQQVVWRPFTFGQGTKVEIKRV[human IgG1 Fc with changes left out]
B22: TNFα dAb Fc variant G57Y (Fc fusion, name in Kabat numbering)
chain: DIQMTQSPSSLSASVGDRVTITCRASQAIDSYLHWYQQKPGKAPKLLIYSASNLETYVPSRFSGSGSGTDFTLTISSLLPEDFATYYCQQVVWRPFTFGQGTKVEIKRV[human IgG1 Fc with changes left out]
B23: TNFα dAb Fc variant G64D (Fc fusion, name in Kabat numbering)
chain: DIQMTQSPSSLSASVGDRVTITCRASQAIDSYLHWYQQKPGKAPKLLIYSASNLETGVPSRFSDSGSGTDFTLTISSLLPEDFATYYCQQVVWRPFTFGQGTKVEIKRV[human IgG1 Fc with changes left out]
B24: TNFα dAb Fc variant F71H (Fc fusion, name in Kabat numbering)
chain: DIQMTQSPSSLSASVGDRVTITCRASQAIDSYLHWYQQKPGKAPKLLIYSASNLETGVPSRFSGSGSGTDHTLTISSLLPEDFATYYCQQVVWRPFTFGQGTKVEIKRV[human IgG1 Fc with changes left out]
B25: TNFα dAb Fc variant A84S (Fc fusion, name in Kabat numbering)
chain: DIQMTQSPSSLSASVGDRVTITCRASQAIDSYLHWYQQKPGKAPKLLIYSASNLETGVPSRFSGSGSGTDFTLTISSLLPEDFSTYYCQQVVWRPFTFGQGTKVEIKRV[human IgG1 Fc with changes left out]
B26: TNFα dAb Fc variant G41L (Fc fusion, name in Kabat numbering)
chain: DIQMTQSPSSLSASVGDRVTITCRASQAIDSYLHWYQQKPLKAPKLLIYSASNLETGVPSRFSGSGSGTDFTLTISSLLPEDFATYYCQQVVWRPFTFGQGTKVEIKRV[human IgG1 Fc with changes left out]
B27: TNFα dAb Fc variant E81Y (Fc fusion, name in Kabat numbering)
chain: DIQMTQSPSSLSASVGDRVTITCRASQAIDSYLHWYQQKPGKAPKLLIYSASNLETGVPSRFSGSGSGTDFTLTISSLLPYDFATYYCQQVVWRPFTFGQGTKVEIKRV[human IgG1 Fc with changes left out]
B28: TNFα dAb Fc variant F71L (Fc fusion, name in Kabat numbering)
chain: DIQMTQSPSSLSASVGDRVTITCRASQAIDSYLHWYQQKPGKAPKLLIYSASNLETGVPSRFSGSGSGTDLTLTISSLLPEDFATYYCQQVVWRPFTFGQGTKVEIKRV[human IgG1 Fc with changes left out]

Target: T1, recombinant human TNFα (CytoLab) (human, UniProt P01375 partial chain)
T1 construct: coated on the ELISA plate at 1 µg/ml; also called Tumour necrosis factor alpha
T1 sequence (P01375 77-233 limits assumed): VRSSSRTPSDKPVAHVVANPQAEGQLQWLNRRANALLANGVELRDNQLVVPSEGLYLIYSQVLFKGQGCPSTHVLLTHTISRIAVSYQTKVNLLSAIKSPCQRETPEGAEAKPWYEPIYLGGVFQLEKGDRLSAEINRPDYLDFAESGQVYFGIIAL
Experiment: ELISA on coated human TNFα

Binder	A450 (AU)
B1	1.44
B2	0.263
B3	0.795
B4	0.883
B5	0.251
B6	0.205
B7	0.825
B8	0.177
B9	0.292
B10	0.326
B11	0.977
B12	0.212
B13	0.208
B14	0.718
B15	0.265
B16	0.226
B17	0.831
B18	0.22
B19	1.03
B20	0.226
B21	0.799
B22	1.08
B23	0.171
B24	0.315
B25	0.645
B26	0.906
B27	0.793
B28	0.208

Reference: patent US20110319597A1 (CAPHALON AUSTRALIA, published 2011)
